Measurements: the supplement of paper PMC11741623
The list shows a part of the results. Interaction screen of human proteins with wild-type SARS-CoV-2 proteins by split-DHFR complementation in yeast, 1 µg/mL methotrexate. Value = fitness of the pair (three or more lineages) minus that of the viral protein without a human partner, on a scale set by negative (0) and fused positive (1) controls, mean of up to three cultures; higher = more likely to interact. Active = false discovery rate below 0.05 (one-sided t-test) in at least one culture. Nearly all pairs are not hits, and differences among them are mostly noise (correlation between cultures about 0.3); most hits were seen in one culture only. Human sequences are the Swiss-Prot entries looked up by gene name; the clone may be another isoform. NSP2 values were corrected by the authors for a growth advantage. Listed are human proteins with a hit and a random twelfth of the others.

Experiments:
Test in all cases: yeast fitness gain over the viral ORF with no human partner (scaled fitness); higher = more likely to interact
SARS-CoV-2 NSP1 = molecular target: SARS-CoV-2 NSP1
Method: (§1)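 Split mouse DHFR complementation in pooled diploid yeast: human ORFeome clones carry one fragment and viral ORFs the other; barcoded lineages compete in 1 µg/mL methotrexate and fitness is read by barcode sequencing in up to three cultures.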

SARS-CoV-2 NSP10 = molecular target: SARS-CoV-2 NSP10
Method: as §1

SARS-CoV-2 NSP12 = molecular target: SARS-CoV-2 NSP12
Method: as §1

SARS-CoV-2 NSP13 = molecular target: SARS-CoV-2 NSP13
Method: as §1

SARS-CoV-2 NSP2 = molecular target: SARS-CoV-2 NSP2
Method: as §1

SARS-CoV-2 NSP5 = molecular target: SARS-CoV-2 NSP5
Method: as §1

SARS-CoV-2 NSP9 = molecular target: SARS-CoV-2 NSP9
Method: as §1

SARS-CoV-2 ORF3B = molecular target: SARS-CoV-2 ORF3B
Method: as §1

SARS-CoV-2 ORF6 = molecular target: SARS-CoV-2 ORF6
Method: as §1

SARS-CoV-2 ORF7B = molecular target: SARS-CoV-2 ORF7B
Method: as §1

SARS-CoV-2 ORF9B = molecular target: SARS-CoV-2 ORF9B
Method: as §1

[1] = molecular target: SARS-CoV-2 ORF9Bwu (the 73-codon ORF)
Method: as §1

SARS-CoV-2 S = molecular target: SARS-CoV-2 S
Method: as §1

SARS-CoV-2 NSP6 = molecular target: SARS-CoV-2 NSP6
Method: as §1

SARS-CoV-2 NSP7 = molecular target: SARS-CoV-2 NSP7
Method: as §1

SARS-CoV-2 ORF10 = molecular target: SARS-CoV-2 ORF10
Method: as §1

SARS-CoV-2 ORF8 = molecular target: SARS-CoV-2 ORF8
Method: as §1

SARS-CoV-2 NSP14 = molecular target: SARS-CoV-2 NSP14
Method: as §1

SARS-CoV-2 NSP4 = molecular target: SARS-CoV-2 NSP4
Method: as §1

SARS-CoV-2 NSP8 = molecular target: SARS-CoV-2 NSP8
Method: as §1

SARS-CoV-2 ORF7A = molecular target: SARS-CoV-2 ORF7A
Method: as §1

Measured: yeast fitness gain

B1: TRDV2, A0JD36 (protein)
chain: MQRISSLIHLSLFWAGVMSAIELVPEHQTVPVSIGVPATLRCSMKGEAIGNYYINWYRKTQGNTMTFIYREKDIYGPGFKDNFQGDIDIAKNLAVLKILAPSERDEGSYYCACDT
inactive: SARS-CoV-2 NSP1 = 0.197 | SARS-CoV-2 NSP10 = -0.0488 | SARS-CoV-2 NSP12 = 0.0668 | SARS-CoV-2 NSP13 = -0.0382 | SARS-CoV-2 NSP2 = -0.141 | SARS-CoV-2 NSP5 = 0.0505 | SARS-CoV-2 NSP9 = -0.0175 | SARS-CoV-2 ORF3B -0.144 | SARS-CoV-2 ORF6 = 0.0397 | SARS-CoV-2 ORF7B 0.0103 | SARS-CoV-2 ORF9B 0.0787 | [1] -0.0512 | SARS-CoV-2 S -0.0212

B2: SOHLH1, Q5JUK2 (protein)
chain: MASRCSEPYPEVSRIPTVRGCNGSLSGALSCCEDSARGSGPPKAPTVAEGPSSCLRRNVISERERRKRMSLSCERLRALLPQFDGRREDMASVLEMSVQFLRLASALGPSQEQHAILASSKEMWHSLQEDVLQLTLSSQIQAGVPDPGTGASSGTRTPDVKAFLESPWSLDPASASPEPVPHILASSRQWDPASCTSLGTDKCEALLGLCQVRGGLPPFSEPSSLVPWPPGRSLPKAVRPPLSWPPFSQQQTLPVMSGEALGWLGQAGPLAMGAAPLGEPAKEDPMLAQEAGSALGSDVDDGTSFLLTAGPSSWPGEWGPGFRAGPPA
inactive: SARS-CoV-2 NSP10 = 0.0619 | SARS-CoV-2 NSP12 = -0.156

B3: EID2B, Q96D98 (protein)
chain: MAEPTGLLEMSELPGDSSVPQVGTASGVSDVLRGAVGGGVRVQEAREGPVAEAARSMARMPGPVPGPIPSSVPGLASAPDPHQQLAFLEINRQLLFREYLDGSSMIPVRLLRDFEERRRLFVEGCKAREAAFDADPPQMDFAAVAFTVALTASEALSPLAD
inactive: SARS-CoV-2 NSP10 = 0.108 | SARS-CoV-2 NSP13 = 0.124 | SARS-CoV-2 NSP6 = -0.0525 | SARS-CoV-2 ORF6 = 0.0725 | SARS-CoV-2 ORF9B 0.0317

B4: FPR3, P25089 (protein)
chain: METNFSIPLNETEEVLPEPAGHTVLWIFSLLVHGVTFVFGVLGNGLVIWVAGFRMTRTVNTICYLNLALADFSFSAILPFRMVSVAMREKWPFGSFLCKLVHVMIDINLFVSVYLITIIALDRCICVLHPAWAQNHRTMSLAKRVMTGLWIFTIVLTLPNFIFWTTISTTNGDTYCIFNFAFWGDTAVERLNVFITMAKVFLILHFIIGFSVPMSIITVCYGIIAAKIHRNHMIKSSRPLRVFAAVVASFFICWFPYELIGILMAVWLKEMLLNGKYKIILVLINPTSSLAFFNSCLNPILYVFMGRNFQERLIRSLPTSLERALTEVPDSAQTSNTDTTSASPPEETELQAM
inactive: SARS-CoV-2 NSP10 = 0.0566 | SARS-CoV-2 NSP2 = -0.301 | SARS-CoV-2 NSP7 = 0.000599 | SARS-CoV-2 ORF10 = -0.00092 | SARS-CoV-2 ORF3B -0.386 | SARS-CoV-2 ORF8 = 0.0452 | SARS-CoV-2 ORF9B -0.0736

B5: PCDHB3, Q9Y5E6 (protein)
chain: MEAGGERFLRQRQVLLLFVFLGGSLAGSESRRYSVAEEKEKGFLIANLAKDLGLRVEELAARGAQVVSKGNKQHFQLSHQTGDLLLNEKLDREELCGPTEPCILHFQILLQNPLQFVTNELRIIDVNDHSPVFFENEMHLKILESTLPGTVIPLGNAEDLDVGRNSLQNYTITPNSHFHVLTRSRRDGRKYPELVLDKALDPEEQPELSLTLTALDGGSPPRSGTAQINIQVLDINDNAPEFAQPLYEVAVLENTPVNSVIVTVSASDLDTGSFGTISYAFFHASEEIRKTFQLNPITGDMQLVKYLNFEAINSYEVDIEAKDGGGLSGKSTVIVQVVDVNDNPPELTLSSVNSPIPENSGETVLAVFSVSDLDSGDNGRVMCSIENNLPFFLKPSVENFYTLVSEGALDRETRSEYNITITITDLGTPRLKTKYNITVLVSDVNDNAPAFTQISYTLFVRENNSPALHIGSVSATDRDSGTNAQVTYSLLPPQDPHLPLSSLVSINADNGHLFALRSLDYEALQAFEFRVGATDRGSPALSSEALVRVLVLDANDNSPFVLYPLQNGSAPCTELVPRAAEPGYLVTKVVAVDGDSGQNAWLSYQLLKATEPGLFGVWAHNGEVRTARLLSERDAAKHRLVVLVKDNGEPPRSATATLHVLLVDGFSQPYLPLPEAAPAQAQADLLTVYLVVALASVSSLFLFSVLLFVAVRLCRRSRAASVGRCSVPEGPFPGQMVDVSGTGTLSQSYQYEVCLTGGSGTNEFKFLKPIIPNFVAQGAERVSEANPSFRKSFEFS
inactive: SARS-CoV-2 NSP10 = 0.0238 | SARS-CoV-2 NSP13 = -0.397 | SARS-CoV-2 NSP5 = 0.0234 | SARS-CoV-2 ORF10 = -0.24 | SARS-CoV-2 ORF7B 0.11 | SARS-CoV-2 ORF8 = -0.0757 | SARS-CoV-2 ORF9B 0.00804 | SARS-CoV-2 S -0.0361

B6: CCDC42, Q96M95 (protein)
chain: MSLGIMEEEDLAEYFRLQYGERLLQMLQKLPNVEGASESPSIWLLEKKKETEIMHQTMVQKKKMFQRRMETLNLRWEELGVKEAQLKAHIQKSEQFIQENDQKRIRAMKKANKERELKCQHMQELTKRKQEMVALRLEHQRLSAKLKDYYIFNKYLEKVVENSEFEEIHEVIARYKTLVSMRHDLMQSAQEGQEKIERAKARLARYMEEKDDEILQQNNELARLQMRFDRARSNVIFWESRWAHIQNTAAKKTLLLGTIKMATLNLFQIVSKHLKEVTEVALEDTHKQLDMIQQFIQDRSDIWAEVKKKEQQRVRI
inactive: SARS-CoV-2 NSP10 = 0.0122 | SARS-CoV-2 NSP12 = -0.0193 | SARS-CoV-2 NSP13 = -0.163 | SARS-CoV-2 NSP14 = -0.0252 | SARS-CoV-2 NSP2 = -0.102 | SARS-CoV-2 NSP4 = -0.0631 | SARS-CoV-2 NSP5 = -0.0442 | SARS-CoV-2 NSP7 = -0.107 | SARS-CoV-2 NSP8 = 0.0175 | SARS-CoV-2 ORF10 = 0.0345 | SARS-CoV-2 ORF3B 0.103 | SARS-CoV-2 ORF6 = -0.0704 | SARS-CoV-2 ORF7B -0.11 | SARS-CoV-2 ORF8 = -0.0181 | SARS-CoV-2 ORF9B -0.0981

B7: DDAH1, O94760 (protein)
chain: MAGLGHPAAFGRATHAVVRALPESLGQHALRSAKGEEVDVARAERQHQLYVGVLGSKLGLQVVELPADESLPDCVFVEDVAVVCEETALITRPGAPSRRKEVDMMKEALEKLQLNIVEMKDENATLDGGDVLFTGREFFVGLSKRTNQRGAEILADTFKDYAVSTVPVADGLHLKSFCSMAGPNLIAIGSSESAQKALKIMQQMSDHRYDKLTVPDDIAANCIYLNIPNKGHVLLHRTPEEYPESAKVYEKLKDHMLIPVSMSELEKVDGLLTCCSVLINKKVDS
inactive: SARS-CoV-2 NSP10 = 0.0484 | SARS-CoV-2 NSP12 = -0.0844 | SARS-CoV-2 NSP13 = 0.0331 | SARS-CoV-2 NSP2 = -0.154 | SARS-CoV-2 NSP6 = 0.106 | SARS-CoV-2 NSP8 = 0.0462 | SARS-CoV-2 ORF3B -0.0883 | SARS-CoV-2 ORF6 = -0.0184 | SARS-CoV-2 ORF7A 0.0141 | SARS-CoV-2 ORF8 = -0.0652 | SARS-CoV-2 ORF9B 0.0672 | SARS-CoV-2 S -0.0342
